PubChem BioAssay (Tox21)
“And” between values parts separate entries of the source, which are not always exact repeats. Equal values may be shown once. Inconclusive means that the source gave no clear call. Such entries were picked first, then a sample of the others. For part of these data: A potency beside an inconclusive call is a rough fit, not a confirmed value. The source made the active and inactive calls. Unless noted, the call rests on the fitted dose curve; in most records, active means well fitted curve in the direction sought with a large enough effect in the repeat runs; inconclusive means weak or mixed curves; inactive means no such curve, though single readings can be large; an effect the other way counts as inactive or inconclusive.

What was measured:
[1] = qHTS assay to identify small molecule HDAC inhibitors (AID 1259364); further: potency means the concentration at half of the fitted maximal effect; nearly all actives have a fitted effect of over 45% in size
Procedure, shortened: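 Luminescence read after 30 min room-temperature HDAC-Glo incubation measures cellular class I/II HDAC activity. Compounds were applied for 2 hr at 37 C to HCT-116 wild-type cells seeded the day before.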

[2] = qHTS assay to identify small molecule agonists of the estrogen receptor beta (ER-beta) signaling pathway - cell viability counter screen (AID 1259380); further: nearly all actives have a fitted effect of over 30% in size; further: potency means the concentration at half of the fitted maximal effect
Procedure, shortened: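 Cell viability counter screen: CellTiter-Glo luminescence (30 min, room temperature) measured in the same wells as the beta-lactamase readout, after 16 hr compound exposure at 37C of ER-beta-bla HEK293T cells in 2% charcoal-stripped FBS medium.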

[3] = qHTS assay to identify small molecule agonists of the sonic hedgehog signaling (Shh) pathway - cell viability counter screen (AID 1259366); further: potency means the concentration at half of the fitted maximal effect; nearly all actives have a fitted effect of over 50% in size
Procedure, shortened: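 Cytotoxicity counter screen run in the same wells as the Shh reporter assay. NIH/3T3 cells carrying a Gli1 response element–driven luciferase were treated with DMSO-dissolved compounds for 24hr, and live-cell protease activity was measured with CellTiter-Fluor.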

[4] = qHTS assay to identify small molecule antagonists of the sonic hedgehog signaling (Shh) pathway - cell viability counter screen (AID 1259367); further: potency means the concentration at half of the fitted maximal effect; nearly all actives have a fitted effect of over 55% in size
Procedure, shortened: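 Cytotoxicity was assessed in parallel with Shh reporter activity by measuring live-cell protease fluorescence (CellTiter-Fluor) in NIH/3T3 cells stably carrying Gli1-Luc, treated with compound under conditioned medium stimulation for 23 hr plus 1 hr reagent incubation.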

[5] = molecular target: Estrogen receptor beta (Homo sapiens) (UniProt Q92731); assay: qHTS assay to identify small molecule antagonists of the estrogen receptor beta (ER-beta) signaling pathway (AID 1259378; active means well fitted inhibition curve with a large enough effect in the signal ratio in the repeat runs, not every such curve was filed as active; inconclusive means weak or mixed curves, or effect the other way; inactive means no such curve, though single readings can be large or run the other way; the % refers to the signal ratio; further: potency means the concentration at half of the fitted maximal effect; on activity, negative = inhibition: on the % scale 0 is the no-effect control and ±100 the full control effect); settings: ER-beta-UAS-bla HEK293T, beta-lactamase FRET ratio, 16 h; activity, negative = inhibition: at 92.4 µM (top of the series) unless noted
Chain of UniProt Q92731 (Q92731 whole entry, looked up): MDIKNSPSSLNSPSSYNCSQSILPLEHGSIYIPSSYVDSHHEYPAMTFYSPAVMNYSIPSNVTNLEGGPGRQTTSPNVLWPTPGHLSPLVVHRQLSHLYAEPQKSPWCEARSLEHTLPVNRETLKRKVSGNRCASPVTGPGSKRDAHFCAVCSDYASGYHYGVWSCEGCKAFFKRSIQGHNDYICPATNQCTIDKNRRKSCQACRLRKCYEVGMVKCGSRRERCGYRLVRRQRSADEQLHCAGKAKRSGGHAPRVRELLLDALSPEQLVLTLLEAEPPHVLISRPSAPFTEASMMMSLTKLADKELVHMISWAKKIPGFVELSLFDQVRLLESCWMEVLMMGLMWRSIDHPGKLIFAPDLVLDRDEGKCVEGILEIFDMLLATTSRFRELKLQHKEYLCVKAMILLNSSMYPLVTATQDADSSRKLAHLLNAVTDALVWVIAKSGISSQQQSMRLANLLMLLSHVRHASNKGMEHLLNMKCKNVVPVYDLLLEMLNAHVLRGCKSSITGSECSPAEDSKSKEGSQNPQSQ
Procedure, shortened: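 ER-beta-UAS-bla HEK293T (GripTite) cells in 2% charcoal-stripped FBS medium were preincubated 6 hr at 37C, dosed with compound, then stimulated with 1 nM E2 (final) for 16 hr; beta-lactamase reporter read by B/G FRET fluorescence after 2 hr substrate loading.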

[6] = qHTS assay to identify small molecule antagonists of the estrogen receptor beta (ER-beta) signaling pathway - cell viability counter screen (AID 1259382); further: potency means the concentration at half of the fitted maximal effect; nearly all actives have a fitted effect of over 55% in size
Procedure, shortened: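 Cytotoxicity was measured in the same wells by CellTiter-Glo luminescence after 30 min at room temperature. Cells were ER-beta-bla HEK293T in charcoal-stripped serum, given compound together with 1 nM E2 and incubated 16 h at 37C.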

[7] = qHTS assay to identify small molecule agonists or antagonists of the thyroid stimulating hormone receptor (TSHR) signaling pathway - wild type cell line counter screen (AID 1259384; calls by dose curve; further: on the % scale 0 is the no-effect control and ±100 the full control effect); settings: HEK293 wild type, cAMP HTRF counter-screen; cAMP activity change: at 92.4 µM (top of the series), stronger effect = higher value unless noted
Procedure, shortened: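 Wild-type HEK293 cells were plated 18 h at 37 C/5% CO2, pin-dosed with compound plus Ro20-1724 medium, held 30 min at room temperature, then given cAMP-d2 and anti-cAMP-cryptate; fluorescence was read after 1 h. Fifteen concentrations, triplicate.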

[8] = molecular target: Thyrotropin receptor (Homo sapiens) (UniProt P16473); assay: qHTS assay to identify small molecule antagonists of the thyroid stimulating hormone receptor (TSHR) signaling pathway (AID 1259385; calls by dose curve; further: on the % scale 0 is the no-effect control and ±100 the full control effect; nearly all actives have a fitted effect of over 20% in size); settings: TSHR-HEK293 cAMP HTRF, TSH-stimulated antagonist mode; activity change, negative = inhibition: at 92.4 µM (top of the series) unless noted
Chain of UniProt P16473 (P16473 whole entry, looked up): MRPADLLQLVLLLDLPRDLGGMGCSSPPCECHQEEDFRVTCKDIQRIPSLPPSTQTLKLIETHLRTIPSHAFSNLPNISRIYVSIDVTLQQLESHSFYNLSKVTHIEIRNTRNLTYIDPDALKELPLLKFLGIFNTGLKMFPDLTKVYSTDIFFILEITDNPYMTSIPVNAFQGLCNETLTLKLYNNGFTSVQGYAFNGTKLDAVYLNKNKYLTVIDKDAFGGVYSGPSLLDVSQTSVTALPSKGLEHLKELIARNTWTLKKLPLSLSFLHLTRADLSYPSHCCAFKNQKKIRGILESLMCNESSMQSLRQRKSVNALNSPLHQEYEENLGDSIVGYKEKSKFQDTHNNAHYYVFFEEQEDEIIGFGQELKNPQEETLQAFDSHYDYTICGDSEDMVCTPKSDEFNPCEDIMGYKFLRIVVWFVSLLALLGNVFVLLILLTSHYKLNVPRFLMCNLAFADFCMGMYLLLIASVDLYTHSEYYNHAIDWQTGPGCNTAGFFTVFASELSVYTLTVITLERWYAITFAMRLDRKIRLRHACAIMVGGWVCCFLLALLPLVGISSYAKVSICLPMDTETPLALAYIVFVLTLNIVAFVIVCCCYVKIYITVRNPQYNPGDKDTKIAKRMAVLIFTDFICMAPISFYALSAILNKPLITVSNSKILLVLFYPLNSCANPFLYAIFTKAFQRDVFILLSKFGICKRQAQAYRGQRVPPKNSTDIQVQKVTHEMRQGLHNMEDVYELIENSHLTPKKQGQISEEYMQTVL
Procedure, shortened: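 TSHR-HEK293 cells were plated and held 18 h at 37C/5% CO2, then given compound plus Ro20-1724 and stimulated with TSH at 1.5 ng/mL final. After 30 min at room temperature, cAMP was detected with cAMP-d2/anti-cAMP-cryptate (1 h) by fluorescence.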

[9] = qHTS assay to identify small molecule agonists of the sonic hedgehog signaling (Shh) pathway (AID 1259368; calls by dose curve; further: potency means the concentration at half of the fitted maximal effect; nearly all actives have a fitted effect of over 15% in size)
Procedure, shortened: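 Luminescence was read after 30 min at room temperature with luciferase reagent. Before that, 3T3Gli1-Luc cells (NIH/3T3 clone, stable Gli1-Luc reporter; 2,000/well) were exposed to compounds for 24 hr at 37C, 5% CO2, compounds being added 4 hr post-plating.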

[10] = qHTS assay to identify small molecule agonists of the androgen receptor (AR) signaling pathway in the presence of an antagonist - cell viability counter screen (AID 1259379); further: potency means the concentration at half of the fitted maximal effect; nearly all actives have a fitted effect of over 25% in size
Procedure, shortened: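 Cytotoxicity counter-screen run in the same wells as the nilutamide-challenged (3.0 µM final) AR agonist assay in MDA-kb2 cells. Compounds tested at 15 concentrations for 16 h, 37 °C without CO2; CellTiter-Fluor fluorescence read.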

[11] = qHTS assay to identify small molecule antagonists of the sonic hedgehog signaling (Shh) pathway (AID 1259369; calls by dose curve; further: potency means the concentration at half of the fitted maximal effect; nearly all actives have a fitted effect of over 45% in size)
Procedure, shortened: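 Antagonist mode: compound added to 3T3 Gli1-Luc cells followed by conditioned-medium stimulation, 24 h at 37 C, 5% CO2. Inhibition taken as loss of Gli1-driven luciferase luminescence.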
Tags describe the fitted curve by direction and shape or compound fluorescence and quenching.

Compound: SCCCCCCCCS
- Potency [1]: inconclusive: 68.6 µM [inhibitor, single point]
- Potency [2]: inactive

Compound: O=C(O)c1ccc([N+](=O)[O-])cc1
- Potency [3]: inconclusive: 6.86 µM [cytotoxic, single point]

Compound: CCCCCCC(C)Nc1ccc(Nc2ccccc2)cc1 (stereo unspecified)
- Potency [3]: inconclusive: 77 µM [cytotoxic, partial curve, poor fit]
- Potency [4]: inconclusive: 68.6 µM [cytotoxic, single point]
- Potency [5]: active: 48.6 µM
- Potency [2]: inconclusive: 68.6 µM [cytotoxic, single point]
- Potency [6]: inconclusive: 68.6 µM [cytotoxic, single point]
- cAMP activity change [7]: inconclusive: -2.14%
- activity change, negative = inhibition [8]: inconclusive: 4.51%

Compound: O=C1OC(O)C(C(Cl)Cl)=C1Cl (stereo unspecified)
- Potency [3]: active: 44.6 µM
- Potency [9]: inconclusive: 25.1 µM [activator, single point]
- Potency [5]: inconclusive: 35.4 µM [rising, partial curve]
- Potency [10]: inconclusive: 70.7 µM [cytotoxic, single point]

Compound: CC(C)(c1cc(Br)c(O)c(Br)c1)c1cc(Br)c(O)c(Br)c1
- Potency [3]: inconclusive: 68.4 µM [cytotoxic, single point]
- Potency [4]: inconclusive: 64.9 µM [cytotoxic, single point]
- Potency [11]: inconclusive: 15.3 µM [inhibitor, full curve, poor fit] and active: 60.9 µM and active: 64.9 µM
- Potency [5]: inconclusive: 13.6 µM [full curve] and inconclusive: 12.2 µM
- activity, negative = inhibition [5]: inconclusive: -58.2%
- Potency [2]: inconclusive: 64.9 µM [cytotoxic, single point]
- Potency [6]: inconclusive: 68.3 µM [cytotoxic] and active: 68.4 µM and inconclusive: 29 µM [cytotoxic, partial curve]
